The supplement of paper PMC4604168 (melanoma cell lines)
The other results are listed elsewhere or left out. Most values come without repeats; read them as rough.

Assays:
Experiment in all cases: cell count relative to DMSO control; melanoma cells; higher = more viable cells
Settings in all cases: library dose: standard library concentration; 72 h
G361 = test system: G361
IPC-298 = test system: IPC-298
IST-MEL1 = test system: IST-MEL1
LB2518-MEL = test system: LB2518-MEL
LOXIMVI = test system: LOXIMVI
MEL-HO = test system: MEL-HO
MZ2-MEL = test system: MZ2-MEL
MeWo = test system: MeWo
RPMI7951 = test system: RPMI7951
RVH-421 = test system: RVH-421
SkMel28 = test system: SkMel28
SkMel2 = test system: SkMel2
SkMel30 = test system: SkMel30
SkMel5 = test system: SkMel5
UACC257 = test system: UACC257
UACC62 = test system: UACC62
WM115 = test system: WM115
WM1716 = test system: WM1716
WM1745 = test system: WM1745
WM3526 = test system: WM3526
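Further: cells treated in 1,536-well plates, then fixed and DAPI-stained, with nuclei counted from automated high-throughput microscope images.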

Structure (SMILES)	cell count (G361) [%]	cell count (IPC-298) [%]	cell count (IST-MEL1) [%]	cell count (LB2518-MEL) [%]	cell count (LOXIMVI) [%]	cell count (MEL-HO) [%]	cell count (MZ2-MEL) [%]	cell count (MeWo) [%]	cell count (RPMI7951) [%]	cell count (RVH-421) [%]	cell count (SkMel28) [%]	cell count (SkMel2) [%]	cell count (SkMel30) [%]	cell count (SkMel5) [%]	cell count (UACC257) [%]	cell count (UACC62) [%]	cell count (WM115) [%]	cell count (WM1716) [%]	cell count (WM1745) [%]	cell count (WM3526) [%]
O=C(O)c1ccc(-c2c[nH]c3ncc(-c4ccccc4)cc23)cc1C1CCCC1 + Cc1cc(SCc2sc(-c3ccc(C(F)(F)F)c(F)c3)nc2C)ccc1OCC(=O)O [GW0742] (first compound 0.8 µM, partner dose 10 µM)	71.2	85.9	75.5	95.4	87.8	72.1	84	84.7	75.1	90.4	58.7	79.6	93.5	77.8	77	93.1	109	95.9	105	94
COC(=O)c1sccc1S(=O)(=O)Nc1ccc(Nc2ccccc2)cc1OC + C/C(O)=C(\C#N)C(=O)Nc1cc(Br)ccc1Br [LFM-A13] (first compound 5 µM, partner dose 10 µM)	101	104	106	89.4	131	103	76.3	114	78.6	87.5	88.1	103	85.6	110	108	103	88.5	91.3	89.4	103
C[C@@H](N)c1ccc(C(=O)Nc2ccnc3[nH]ccc23)cc1 + C[C@]12O[C@H](C[C@]1(O)CO)n1c3ccccc3c3c4c(c5c6ccccc6n2c5c31)CNC4=O [Lestaurtinib] (first compound 2 µM, partner dose 0.02 µM)	59.1	100	92.6	88.9	61.5	71.8	64.2	80.4	51.6	40.4	53.9	90.1	91.9	56.4	88.4	94.6	91.3	70.7	47.2	65.9
Cc1cc(SCc2sc(-c3ccc(C(F)(F)F)c(F)c3)nc2C)ccc1OCC(=O)O + CCCCCCCCCCCC1=C(O)C(=O)C=C(O)C1=O [Embelin] (first compound 10 µM, partner dose 6 µM)	81.8	64.9	70.6	70.4	140	76	79	110	79.9	77.3	79.8	85.3	102	109	88.9	106	84.9	71.1	72.8	100
Cn1sc(=O)n(Cc2ccccc2)c1=O + C[C@]12O[C@H](C[C@]1(O)CO)n1c3ccccc3c3c4c(c5c6ccccc6n2c5c31)CNC4=O [Lestaurtinib] (first compound 2 µM, partner dose 0.02 µM)	88.5	83.1	104	55.8	110	75.1	96.2	70.1	69.7	102	70.9	88.9	68.5	60.8	100	80	69.4	99.6	104	57.2
C[C@]1(O)C[C@@H](c2nc(-c3ccc4ccc(-c5ccccc5)nc4c3)c3c(N)nccn32)C1 + C[As](C)SC[C@H](NC(=O)CC[C@H](N)C(=O)O)C(=O)NCC(=O)O [Darinaparsin] (first compound 2 µM, partner dose 2 µM)	78.5	89.5	88.6	97.9	58.7	105	94.7	77.7	94.1	89.5	125	78.7	106	59	84.4	61.7	75	57.5	56.5	61.2
CN(NC(=O)CC(=O)NN(C)C(=S)c1ccccc1)C(=S)c1ccccc1 + O=C(Oc1ccc([N+](=O)[O-])cc1)N1CCC(C(O)(c2ccc3c(c2)OCO3)c2ccc3c(c2)OCO3)CC1 [JZL184] (first compound 0.03 µM, partner dose 5 µM)	61.9	74.6	36.4	2.69	61.3	80.1	95.7	11.2	47.1	45.4	6.52	66.3	79.5	69.2	97.5	68.8	30.6	99.8	18.9	89.8
CC(=O)c1c(C)c2cnc(Nc3ccc(N4CCNCC4)cn3)nc2n(C2CCCC2)c1=O [palbociclib] + C[As](C)SC[C@H](NC(=O)CC[C@H](N)C(=O)O)C(=O)NCC(=O)O [Darinaparsin] (first compound 0.2 µM, partner dose 2 µM)	75.2	75.1	85.7	65.9	103	81.4	74.3	62.8	65.5	82.5	51.6	83.5	79.8	46.1	68.4	68.7	58.1	41.1	71.3	41.6
